Experimental data as given in PubChem BioAssay AID1460 (National Center for Advancing Translational Sciences (NCATS), 2008).
In all, about 270,000 compounds went through this assay and about 5,800 (2.1%) were called active. This list was built around the results that the source calls inconclusive (neither active nor inactive); the mix of calls is not that of the screen. Calls follow the shape of the dose curve; as a rule, active = well fitted inhibition curve with a large enough effect; inconclusive = small, poorly fitted or top-dose-only effect; inactive = flat fitted curve, though single readings scatter. Potencies of inconclusive entries are doubtful fits and often do not repeat.

biological target: Microtubule-associated protein tau (Homo sapiens) (UniProt P10636); assay: qHTS for Inhibitors of Tau Fibril Formation, Thioflavin T Binding; details: recombinant tau K18 P301L (four-repeat tau fragment), heparin-induced fibrillization, ThT fluorescence; series mostly up to 57.4 µM; also: nearly all actives have a fitted effect of over 55% in size
Chain of UniProt P10636 (P10636 whole entry, looked up, the tested form may be a part): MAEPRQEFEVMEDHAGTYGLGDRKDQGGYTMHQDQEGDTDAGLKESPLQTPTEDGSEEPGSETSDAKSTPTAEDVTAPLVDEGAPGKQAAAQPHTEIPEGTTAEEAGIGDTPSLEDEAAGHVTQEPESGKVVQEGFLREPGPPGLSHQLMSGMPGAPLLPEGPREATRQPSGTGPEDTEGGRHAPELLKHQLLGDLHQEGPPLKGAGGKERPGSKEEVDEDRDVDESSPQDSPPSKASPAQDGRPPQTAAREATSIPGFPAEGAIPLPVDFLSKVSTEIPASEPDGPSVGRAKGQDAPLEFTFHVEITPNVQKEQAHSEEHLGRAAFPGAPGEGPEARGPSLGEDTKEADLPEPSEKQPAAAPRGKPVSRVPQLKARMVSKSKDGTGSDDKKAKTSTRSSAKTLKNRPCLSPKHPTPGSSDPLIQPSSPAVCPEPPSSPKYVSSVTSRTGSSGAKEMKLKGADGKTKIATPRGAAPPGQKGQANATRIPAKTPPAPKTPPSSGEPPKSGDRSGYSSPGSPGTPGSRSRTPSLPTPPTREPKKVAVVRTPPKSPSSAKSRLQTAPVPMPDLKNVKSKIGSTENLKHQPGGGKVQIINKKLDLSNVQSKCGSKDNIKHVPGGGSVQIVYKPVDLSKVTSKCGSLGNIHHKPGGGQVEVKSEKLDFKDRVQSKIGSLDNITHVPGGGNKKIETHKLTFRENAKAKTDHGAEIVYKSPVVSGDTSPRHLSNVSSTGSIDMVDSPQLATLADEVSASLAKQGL
How it was run: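 Heparin-induced (20 uM) aggregation of recombinant human K18 P301L tau, 15 uM unlabeled with 0.24 uM labeled, pH 7 acetate buffer, 6 hr at 37 C with compound. Fibrils quantified by 30 uM ThT fluorescence after 1 hr ambient incubation.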
Potency is read from the fitted curve at half-maximal effect; tags tell the direction and shape of the fitted curve.

Row | Structure (SMILES) | Potency
1 | CCOc1ccc(CCNC(=O)c2cc3c(=O)[nH]c4ccc(C)cc4c3s2)cc1OCC | inconclusive: 20 µM [inhibitor, partial curve]
2 | COc1ccc(-c2nc(SCC(=O)NCCc3ccc(OC)c(OC)c3)n[nH]2)cc1 | inconclusive: 5.01 µM [inhibitor, partial curve]
3 | O=C1OCCN1C(=O)[C@H]1[C@H](c2ccc(F)cc2)C(c2ccc(F)cc2)=NN1c1ccc(Br)cc1 | inconclusive: 39.8 µM [inhibitor, single point]
4 | COc1ccc(N2C(=O)CC(Sc3nnc(-c4ccccc4)o3)C2=O)cc1 (stereo not drawn) | inconclusive: 20 µM [inhibitor, partial curve]
5 | CC(C)Cn1c(SC(C)C(=O)Nc2ccc(N3CCOCC3)cc2)nc2ccccc21 (stereo not drawn) | inconclusive: 22.4 µM [inhibitor, partial curve]
6 | CC(C)NCC(O)Cn1c2c(c3ccccc31)CCc1c-2cnn1-c1ccccc1 (stereo not drawn) | active: 15.8 µM
7 | COC(=O)c1ccc(Cn2nnc3sc4c(c3c2=O)CCC(C)C4)cc1 (stereo not drawn) | inconclusive: 14.1 µM [inhibitor, partial curve]
8 | CCCc1cc(C(N)=O)c(NC(=O)c2ccoc2C)s1 | inconclusive: 11.2 µM [inhibitor, partial curve]
9 | COc1ccc(Nc2nc(NCCCN3CCOCC3)nc(N)c2[N+](=O)[O-])cc1 | inconclusive: 12.6 µM [inhibitor, partial curve]
10 | CC(=O)Oc1ccc2c(c1OC(C)=O)OCC1(O)Cc3c(cc(OC(C)=O)c(OC(C)=O)c3OC(C)=O)C21 (stereo not drawn) | inconclusive: 7.94 µM [inhibitor, full curve]
11 | CCc1c(C)nc2cc(-c3cc(OC)cc(OC)c3)nn2c1N1CCCC1 | inconclusive: 22.4 µM [inhibitor, single point]
12 | Cc1ccsc1/C=N/Nc1cccc(C(=O)O)c1 | inconclusive: 14.1 µM [inhibitor, partial curve]
13 | Cc1c(C#N)c(NC(=O)CCl)n(Cc2ccccc2)c1C | inactive
14 | Cc1ccc(Sc2ccc(NC(=O)CCl)cc2)cc1C | inconclusive: 39.8 µM [inhibitor, single point]
15 | COc1cc2ncc(C(=O)c3ccccc3)c(N3CCN(Cc4ccccc4)CC3)c2cc1OC | inconclusive: 22.4 µM [inhibitor, partial curve, poor fit]
16 | CC(C)Nc1oc(-c2cccc3ccccc23)nc1C#N | inconclusive: 39.8 µM [inhibitor, single point]
17 | COc1ccc(-n2nc3c(N4CCCC(C(=O)NCc5cccc(F)c5)C4)nnc(C)c3c2C)cc1 (stereo not drawn) | inconclusive: 39.8 µM [inhibitor, single point]
18 | COc1ccc(C(=O)NCC(=O)N/N=C/c2ccc([N+](=O)[O-])o2)cc1OC | inconclusive: 11.2 µM [inhibitor, partial curve]
19 | Cc1nc2ccccc2c2c(N)c3ccccc3n12 | active: 10 µM
20 | OCCOCCNc1ncnc2c1cnn2-c1ccccc1 | inconclusive: 28.2 µM [inhibitor, single point]
21 | O=C(CSC1=NC(=O)C(c2ccccc2)C(=O)N1)Nc1ccccc1Cl (stereo not drawn) | inconclusive: 25.1 µM [inhibitor, partial curve]
22 | CCOc1ccc2c(c1)nc(C)n2C | inconclusive: 0.0891 µM [inhibitor, full curve, poor fit]

Row | Structure (SMILES) | Potency
23 | CCOC(=O)CSc1nnc(CNc2ccc(Cl)cc2)n1-c1ccccc1 | inactive
24 | O=C1C(NS(=O)(=O)c2ccccc2)=C(N2CCN(c3ccc(F)cc3)CC2)C(=O)c2ccccc21 | active: 6.31 µM
25 | CCN1CCN(c2ccc(NC(=O)c3ccc([N+](=O)[O-])o3)cc2Cl)CC1 | inconclusive: 14.1 µM [inhibitor, partial curve]
26 | CN(C)/C=C1\C(=O)N(c2ccc([N+](=O)[O-])cc2)N=C1c1ccccc1 | active: 17.8 µM
27 | Cc1ccc(NC(=O)Cn2c(=O)n(CCC(=O)N3CCc4ccccc4C3)c(=O)c3ccccc32)cc1 | inactive
28 | COc1ccc(OCCNc2cc(N3CCCCC3)ccc2[N+](=O)[O-])cc1 | inconclusive: 1.12 µM [inhibitor, full curve]
29 | Cc1cc(C)nc(SCc2cn3c(C)cccc3n2)n1 | inactive
30 | COc1ccc(-c2nc(-c3ccccc3)c(-c3cc([N+](=O)[O-])ccc3C)[nH]2)cc1O | inconclusive: 15.8 µM [inhibitor, partial curve]
31 | Cc1ccc(Cn2c(C(=O)O)c(CNC3CCCCCC3)c3ccc(C)cc32)cc1 | inactive
32 | Cc1ccc(NS(=O)(=O)c2ccc3nc(-c4ccccc4)[nH]c3c2)c(Cl)c1 | inactive
33 | Cc1ccc2nc(N3CCN(C(=O)C4CC4)CC3)sc2c1 | inconclusive: 1 µM [inhibitor, full curve]
34 | Oc1ccc(N=Cc2ccc(O)c(O)c2)cc1 | active: 3.16 µM
35 | COc1ccc(/C=C2\SC(=S)N(CC3CCCO3)C2=O)cc1 (stereo not drawn) | inconclusive: 15.8 µM [inhibitor, partial curve, poor fit]
36 | O=C(CSc1nc2ccc([N+](=O)[O-])cc2s1)NC1CCS(=O)(=O)C1 (stereo not drawn) | inconclusive: 39.8 µM [inhibitor, single point]
37 | CCC(=O)Nc1cccc(NC(=S)NC(=O)c2cccc(C)c2)c1 | inconclusive: 22.4 µM [inhibitor, single point]
38 | Cc1ccc2c(c1)-c1nc(-c3ccc4c(c3)NC(=O)CO4)cc(-c3ccc(Cl)cc3)c1CO2 | inactive
39 | O=C(NC(=S)NCc1ccc(F)cc1)c1ccccc1 | inactive
40 | COC(=O)C1CCN(CC(=O)Nc2ccccc2Sc2ccccc2)CC1 | inconclusive: 44.7 µM [inhibitor, single point]
41 | Cc1oc2ncn(C)c(=O)c2c1C(=O)N1CCN(c2ccccc2)CC1 | inconclusive: 31.6 µM [inhibitor, single point]
42 | O=C(Oc1ccc(F)cc1)c1nc(SCc2ccccc2F)ncc1Cl | inconclusive: 12.6 µM [inhibitor, partial curve]
43 | Cc1ccc(-n2cc(-c3ccccc3)[nH]c2=O)cc1F | inconclusive: 7.94 µM [inhibitor, full curve]
